Where “and” joins values, the source holds several entries; their conditions need not be identical. Equal values may be shown once. Out of some 410,000 compounds screened, about 5,000 (1.2%) were called active. The inconclusive results got no clear call from the source; some entries with a clear call stand among them for comparison. The call rests on the fitted dose curve; in most records, active means well fitted inhibition curve with a large enough effect; inconclusive means small, poorly fitted or top-dose-only effect; inactive means no such curve, though single readings can be large or run the other way. Where the call is inconclusive, the potency comes from a doubtful curve fit.
experiment: qHTS for Inhibitors of TGF-b; details: HepG2 CAGA-GFP TGF-b/SMAD3 reporter, GFP fluorescence, 18 h, TGF-beta stimulated, 500 pg/mL final; series mostly up to 46.1 µM; further: nearly all actives have a fitted effect of over 65% in size
Outline: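 Per well, imaged GFP fluorescence of HEPG2 CAGA-GFP cells gives the signal; cells get compound, then TGF-beta (500 pg/mL final), 18 h at 37 degrees C; %Activity versus -TGF-beta and +DMSO controls.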
Potency means the concentration at half of the fitted maximal effect; tags describe the fitted curve by direction and shape.

Compound	Potency
CSc1ccc(CN2CCC(C)(Oc3cccc(F)c3)C2)cc1 (centres undefined)	inactive
COc1ccc(C(NC(C)=O)c2cc(Cl)c3cccnc3c2O)cc1OC (centres undefined)	inconclusive: 20 µM [inhibitor, single point] and inconclusive: 15.8 µM [inhibitor, single point]
NCCCCCCNS(=O)(=O)c1cccc2c(Cl)cccc12	inconclusive: 35.5 µM [inhibitor, single point]
O=C(Cn1nc(C(F)F)cc1C1CC1)N1CCCC1	inactive
COc1ccc(CNc2nc(-c3ccc(OC)c(OC)c3)cc(C(F)(F)F)n2)cc1	inconclusive: 11.2 µM [inhibitor, partial curve]
CCCCSCCCNC(=O)CN1C(=O)COc2ccc(S(=O)(=O)N3CCCC3)cc21	inconclusive: 12.6 µM [inhibitor, partial curve]
Cc1cc2ccccc2c[n+]1C1CCCCC1	inconclusive: 14.1 µM [inhibitor, partial curve, poor fit]
CCOC(=O)c1ccc(NS(=O)(=O)c2cc3c(cc2C)n(C)c(=O)c(=O)n3C)cc1	inactive
O=c1[nH]c(C2CCN(S(=O)(=O)c3cccc([N+](=O)[O-])c3)CC2)nc2c1nnn2Cc1ccccc1	inactive
O=C(NNC(=O)c1cccc2ccccc12)c1ccc(Cl)cc1	inactive
COc1ccc(S(=O)(=O)Nc2cccc3c2O[C@H](CN(C)C(=O)Nc2ccc(C(F)(F)F)cc2)[C@@H](C)CN([C@H](C)CO)C3=O)cc1	inconclusive: 35.5 µM [inhibitor, partial curve, poor fit]
CCN1C(=O)C(O)(C2COC(C)(C)CC2=O)c2cc(Br)ccc21 (centres undefined)	inconclusive: 25.1 µM [inhibitor, single point]
CC(C)C[C@H](NC(=O)CC[C@H]1O[C@@H](n2ccc(=O)[nH]c2=O)[C@H](O)[C@@H]1O)C(=O)O	inconclusive: 12.6 µM [inhibitor, single point]
CC(=O)Oc1ccc(/C(C)=N\N2CCN(Cc3ccc(Cl)cc3)CC2)cc1	inconclusive: 35.5 µM [inhibitor, single point]
COc1ccc(-c2noc(-c3ccc(N4CCOCC4)c([N+](=O)[O-])c3)n2)cc1OC	inactive
COc1ccc(Cl)c(NC(=O)C/C(C)=N/NC(=O)CCc2ccccc2)c1	inconclusive: 35.5 µM [inhibitor, single point]
O=C(O)c1ccc(S(=O)(=O)N(CCc2ccccc2)Cc2ccc(Cl)cc2)cc1	inactive
O=C(NCc1cccnc1)c1ccc(S(=O)(=O)N2CCCCC2)cc1	inactive
C/C=C(/C)C(=O)OC1CC(C)(C)C[C@H]2C3=CC[C@@H]4[C@@]5(C)CCC(O[C@@H]6O[C@@H](C(=O)O)[C@@H](O)C(O[C@@H]7OC[C@H](O)[C@@H](O)[C@@H]7O[C@@H]7OC(CO)C(O)[C@@H](O)[C@@H]7O)C6O[C@@H]6OC(CO)C(O)C(O)C6O)[C@@](C)(CO)[C@@H]5CC[C@]4(C)[C@]3(C)CC(O)[C@@]12CO (some centres undefined)	active: 14.1 µM
COc1cc(/C=N/N2CCN(C3c4ccccc4-c4ccccc43)CC2)ccc1O	inconclusive: 15.8 µM [inhibitor, single point]
COc1ccc(C(=O)NCC(=O)O)cc1	inconclusive: 4.47 µM [inhibitor, single point]
Cc1cccc(CCN2C(N(C)C)=NC[C@@H]2Cc2ccccc2)c1	inactive

Compound	Potency
CCCCN(CCC#N)c1ccc(/C=C/c2ccnc3ccccc23)cc1	inconclusive: 35.5 µM [inhibitor, single point]
CN1CCN(CCCNCc2cn(CCC#N)c3ccccc23)CC1	inactive
Cc1ccc(Sc2ccc(/C=N/O)cc2[N+](=O)[O-])cc1	inconclusive: 31.6 µM [inhibitor, partial curve, poor fit]
Nc1nc(N)c2[nH]cnc2n1	inconclusive: 35.5 µM [inhibitor, partial curve, poor fit]
CC1(C)CC[C@]2(C(=O)n3ccnc3)CC[C@]3(C)[C@H](C(=O)C=C4[C@@]5(C)C=C(C#N)C(=O)C(C)(C)[C@@H]5CC[C@]43C)[C@@H]2C1	inconclusive: 5.62 µM [inhibitor, full curve, poor fit]
CCOc1ccc(-c2nnn(CC(=O)c3ccc4c(c3)OCCO4)n2)cc1	inconclusive: 22.4 µM [inhibitor, single point]
CC[n+]1c(C)cc2c(sc3ccccc32)c1C	inconclusive: 14.1 µM [inhibitor, single point]
CC(C)(C)OC(=O)N/N=C/c1cc(N=Nc2ccccc2)ccc1O	inconclusive: 15.8 µM [inhibitor, single point]
NC(=S)NN=C1c2cc(Cl)ccc2-c2c1cc(Cl)cc2[N+](=O)[O-]	inconclusive: 0.251 µM [inhibitor, full curve, poor fit]
CCCC(=O)NC(Nc1ccc(S(=O)(=O)Nc2cc(C)on2)cc1)(C(F)(F)F)C(F)(F)F	inconclusive: 0.282 µM [inhibitor, full curve, poor fit]
O=C(CN1C(=O)COc2ccc(S(=O)(=O)N3CCCCC3)cc21)NCCc1ccc(Cl)cc1	inconclusive: 0.562 µM [inhibitor, partial curve, poor fit]
O=C(Nc1cccnc1)Nc1cc(Cl)cc(Cl)c1	inconclusive: 35.5 µM [inhibitor, single point]
Cc1nc(N2CCN(S(=O)(=O)c3ccc(Br)cc3)CC2)c2c(C)c(C)sc2n1	inactive
O=C(O)CSc1ccnc2cc(Cl)ccc12	inactive
CCCCCc1ccc(-c2ccc(OCC)cc2)nc1	inconclusive: 31.6 µM [inhibitor, single point]
Cc1ccnc(SCC(=O)NC2CC2)n1	inactive
CCOc1ccc(NC(=O)CN(C)C(=O)c2cn(-c3ccc(F)cc3)nc2-c2cccc(OC)c2)cc1OCC	inconclusive: 0.631 µM [inhibitor, partial curve, poor fit]
Oc1cc2ccccc2cc1-c1nnc2n1-c1ccccc1SC2	inconclusive: 22.4 µM [inhibitor, single point]
CC1CCN(C(=O)c2[nH]cnc2C(=O)N[C@@H](C)C(=O)OCc2ccccc2)CC1	active: 11.2 µM
Cc1cc(C)c(C)c(S(=O)(=O)N2CCC(C(=O)Nc3ccccc3N3CCOCC3)CC2)c1C	inactive
COc1ccc(OC)c(CNc2ncc(-c3ccc(F)cc3)n2C)c1	inactive
COc1ccc(-n2nc(C(=O)NCc3ccco3)c3ccccc3c2=O)cc1	inactive

Compound	Potency
O=C(c1ccc2c3n(nc2c1)-c1ccccc1CO3)N1CCOCC1	inactive
COC(=O)CNC(=O)Cn1cnc2sc(C)c(S(=O)(=O)N3CCN(c4ccccc4OC)CC3)c2c1=O	inconclusive: 35.5 µM [inhibitor, single point]
O=C(Nc1ccccc1)c1cccc(Cn2cc(C(F)(F)F)ccc2=O)c1	inactive
Cc1cnc(NC(=O)CCCSc2nc3ccccc3s2)s1	inconclusive: 0.562 µM [inhibitor, full curve, poor fit]
COc1ccccc1CNC(=O)c1nn(-c2ccc(C)cc2)c(=O)c2c1c1ccccc1n2C	inconclusive: 1 µM [inhibitor, full curve, poor fit]
CCOC(=O)c1oc2ccccc2c1NC(=O)CCl	inconclusive: 15.8 µM [inhibitor, single point]
Cc1cc(Br)ccc1NC(=O)CNC(=O)CN(C)Cc1nc2ccccc2c(=O)[nH]1	inactive
NC(=O)CC(NC(=O)c1ccccc1)c1ccc(NCC2CC2)c([N+](=O)[O-])c1 (centres undefined)	inconclusive: 11.2 µM [inhibitor, partial curve, poor fit]
N=c1n(CCN2CCCC2)c2ccccc2n1CC(O)c1ccc(Cl)c(Cl)c1 (centres undefined)	inconclusive: 35.5 µM [inhibitor, single point]
COc1ccc(-c2cnc(NCc3ccc(C)cc3)n2C)cc1	inconclusive: 20 µM [inhibitor, single point]
CCOCCCn1c(NN)nc2ccccc2c1=O	inconclusive: 12.6 µM [inhibitor, single point]
COc1ccc(OC)c(-c2cc(C(=O)N3CCN(c4ncccn4)CC3)c3ccccc3n2)c1	inconclusive: 0.1 µM [inhibitor, full curve, poor fit]
CC1(C(=O)Nc2ccc3c(c2)OCCO3)CCN1C(=O)C/C=C/c1ccccc1 (centres undefined)	inconclusive: 2.82 µM [inhibitor, single point]
CC(=O)NC1CC2CCCC(C1)N2C(=O)Nc1ccc(Cl)c(C(F)(F)F)c1 (centres undefined)	inconclusive: 10 µM [inhibitor, partial curve]
Cc1onc(C(=O)N2CCC(Cc3ccccc3)CC2)c1[N+](=O)[O-]	inconclusive: 35.5 µM [inhibitor, single point]
O=C(c1ccc(Cl)cc1)N1CCC(O)(CSc2ccc(Cl)cc2)CC1	inconclusive: 15.8 µM [inhibitor, single point]
C=C(C)c1nc(Oc2ccccc2)nc(Oc2ccccc2)n1	active: 11.2 µM
Cc1cc(Nc2cccc(F)c2)n2nc(-c3ccco3)nc2n1	inconclusive: 12.6 µM [inhibitor, partial curve]
CCOc1ccc(NC(=O)C(C)Oc2ccccc2C(=O)Nc2ccc(C)c(Cl)c2)cc1 (centres undefined)	inconclusive: 35.5 µM [inhibitor, single point]
O=C(NCC1COc2ccccc2O1)c1c[nH]c2ccc(S(=O)(=O)N3CCOCC3)cc2c1=O (centres undefined)	inactive

— PubChem BioAssay AID588855 (National Center for Advancing Translational Sciences (NCATS), 2011)
